The results in this text go back to the supplement of paper PMC4967469.

A lower IC50 marks a more sensitive line; fits outside the tested doses are given as limits. The AUC spans the tested range (256-fold, ending at the top dose) of the same fit: 1 means no effect, lower means more sensitive. For some of these results: A top dose marked as inferred is not printed in the source and was worked back from the curve model. For some of these results: An entry number marks a drug with two screens in the source, which often give different values. A value given as a limit tells only on which side of the number the result lay.

What all share (experiment): Viability of human cancer cell lines after 72 h of drug (GDSC screen)
Compound in one test: CN(c1ncccc1CNc1nc(Nc2ccc3c(c2)CC(=O)N3)ncc1C(F)(F)F)S(C)(=O)=O [PF-562271]
The following applies: top dose 2.56 µM; top dose inferred. How it is done:
(§1)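 Human cancer cell lines in 384-well plates, medium with 10% serum, drug for 72 h over a 256-fold dose range (nine 2-fold or five 4-fold steps up to the top dose). Adherent lines were fixed and stained with the nucleic acid dye Syto60, suspension lines read with resazurin; signal relative to control wells, capped at 0 and 100%. One two-parameter sigmoid per drug and line, fitted in a mixed model over all curves with the slope shared within a line.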

Compound in a further test: CN(C)C/C=C/C(=O)Nc1cc2c(Nc3ccc(F)c(Cl)c3)ncnc2cc1O[C@H]1CCOC1 [Afatinib]
How it is done:
as §1

Compound in a further test: CC1(C)CC(=O)c2c(C(F)(F)F)nn(-c3ccc(C(N)=O)c(N[C@H]4CC[C@H](O)CC4)c3)c2C1 [SNX-2112]
The following applies: top dose 2.56 µM. Here is the method:
as §1

Compound in the next test: O=C(NC1CC1)c1cccc(-c2ccc3c(NC(=O)C4CC4)n[nH]c3c2)c1 [XMD13-2]
To be noted: top dose 10.24 µM; top dose inferred. How it is done: as §1

Compound in a further test: CC[C@]1(O)C[C@@H]2CN(CCc3c([nH]c4ccccc34)[C@@](C(=O)OC)(c3cc4c(cc3OC)N(C)[C@H]3[C@@](O)(C(=O)OC)[C@H](OC(C)=O)[C@]5(CC)C=CCN6CC[C@]43[C@@H]65)C2)C1 [Vinblastine]
The following applies: top dose 0.1 µM; top dose inferred. Here is the method: as §1

[1] abbreviates: top dose 0.5 µM, screen: GDSC drug entry 1032.
Setting [2] is: top dose 10 µM, screen: GDSC drug entry 1377, top dose inferred.

As to KP-N-YN (neuroblastoma, adherent), the AUC in the test with PF-562271 is 0.963; with Afatinib (setting [1]) it was 0.984; with Afatinib (setting [2]), 0.979; with SNX-2112, 0.807; in the test with XMD13-2, 0.964; with Vinblastine, 0.787. The IC50 was > 2560 nM with PF-562271; > 500 nM in the test with Afatinib (setting [1]); > 10000 nM with Afatinib (setting [2]); 1460 nM with SNX-2112; > 10200 nM with XMD13-2; 47.9 nM with Vinblastine.
For KS-1 (glioma, adherent), the AUC amounted to 0.88 in the test with PF-562271; 0.924 with Afatinib (setting [1]); 0.883 in the test with Afatinib (setting [2]); 0.35 with SNX-2112; 0.875 with XMD13-2; 0.557 with Vinblastine. Besides, the half-maximal inhibitory concentration (IC50) was > 2560 nM with PF-562271; > 500 nM with Afatinib (setting [1]); > 10000 nM in the test with Afatinib (setting [2]); 55.2 nM with SNX-2112; > 10200 nM with XMD13-2; 9.31 nM with Vinblastine.
As to “KU812 (chronic myeloid leukaemia, suspension)”, the AUC with PF-562271 is 0.96; with Afatinib (setting [1]), 0.983; with Afatinib (setting [2]) it was 0.963; in the test with SNX-2112, 0.111; with XMD13-2, 0.698; with Vinblastine it was 0.686. The concentration for half-maximal inhibition (IC50) with PF-562271 is > 2560 nM; with Afatinib (setting [1]), > 500 nM; in the test with Afatinib (setting [2]), > 10000 nM; with SNX-2112 it was 10.3 nM; in the test with XMD13-2 it was 2180 nM; with Vinblastine, 19.7 nM.
For the cell line KU-19-19 (bladder, adherent), the AUC amounted to 0.969 in the test with PF-562271; 0.889 with Afatinib (setting [1]); 0.986 with Afatinib (setting [2]); 0.86 with SNX-2112; 0.973 with XMD13-2; 0.687 with Vinblastine. In addition, the concentration for half-maximal inhibition (IC50) with PF-562271 was > 2560 nM; with Afatinib (setting [1]), > 500 nM; with Afatinib (setting [2]), > 10000 nM; with SNX-2112 it was 2140 nM; with XMD13-2, > 10200 nM; with Vinblastine, 20.9 nM.
For the cell line KURAMOCHI (ovary, adherent), the AUC with PF-562271 was 0.881; with Afatinib (setting [1]), 0.973; with Afatinib (setting [2]), 0.939; with SNX-2112, 0.798; with XMD13-2, 0.979; in the test with Vinblastine it was 0.691. For the same cell line, the concentration for half-maximal inhibition (IC50) was > 2560 nM in the test with PF-562271; > 500 nM with Afatinib (setting [1]); > 10000 nM in the test with Afatinib (setting [2]); 1440 nM with SNX-2112; > 10200 nM in the test with XMD13-2; 23.6 nM with Vinblastine.
For KY821 (leukaemia, suspension), the AUC was determined as 0.981 with PF-562271; 0.976 in the test with Afatinib (setting [1]); 0.991 in the test with Afatinib (setting [2]); 0.409 with SNX-2112; 0.975 in the test with XMD13-2; 0.486 with Vinblastine. Moreover, the IC50 with PF-562271 is > 2560 nM; with Afatinib (setting [1]), > 500 nM; in the test with Afatinib (setting [2]), > 10000 nM; with SNX-2112, 93.6 nM; in the test with XMD13-2, > 10200 nM; in the test with Vinblastine, 5.74 nM.
In the case of KYM-1 (rhabdomyosarcoma, adherent), the AUC came out at 0.982 with PF-562271; 0.961 with Afatinib (setting [1]); 0.981 with Afatinib (setting [2]); 0.868 with SNX-2112; 0.952 in the test with XMD13-2; 0.432 with Vinblastine. Also, the IC50 was > 2560 nM with PF-562271; > 500 nM with Afatinib (setting [1]); > 10000 nM in the test with Afatinib (setting [2]); 1780 nM with SNX-2112; > 10200 nM with XMD13-2; 4.2 nM with Vinblastine.
As to KYSE-50 (oesophagus, adherent), the AUC amounted to 0.843 with PF-562271; 0.922 with Afatinib (setting [1]); 0.934 with Afatinib (setting [2]); 0.657 with SNX-2112; 0.929 in the test with XMD13-2; 0.655 with Vinblastine. Moreover, the concentration for half-maximal inhibition (IC50) with PF-562271 was 1590 nM; in the test with Afatinib (setting [1]), > 500 nM; with Afatinib (setting [2]) it was > 10000 nM; in the test with SNX-2112, 418 nM; with XMD13-2, > 10200 nM; with Vinblastine, 16.1 nM.
In the case of KYSE-70 (oesophagus, adherent), the AUC in the test with PF-562271 was 0.966; in the test with Afatinib (setting [1]) it was 0.986; with Afatinib (setting [2]), 0.968; with SNX-2112 it was 0.905; with XMD13-2 it was 0.952; in the test with Vinblastine, 0.747. Besides, the IC50 in the test with PF-562271 is > 2560 nM; in the test with Afatinib (setting [1]), > 500 nM; in the test with Afatinib (setting [2]) it was > 10000 nM; in the test with SNX-2112 it was > 2560 nM; in the test with XMD13-2, > 10200 nM; with Vinblastine, 34.7 nM.
Regarding KYSE-140 (oesophagus, adherent), the AUC in the test with PF-562271 was 0.919; with Afatinib (setting [1]), 0.608; with SNX-2112 it was 0.41; in the test with XMD13-2 it was 0.887; with Vinblastine it was 0.782. In addition, the concentration for half-maximal inhibition (IC50) was > 2560 nM with PF-562271; 64.4 nM in the test with Afatinib (setting [1]); 87.5 nM with SNX-2112; > 10200 nM in the test with XMD13-2; 47.8 nM in the test with Vinblastine.
Take KYSE-150 (oesophagus, adherent): the AUC with PF-562271 is 0.83; with Afatinib (setting [1]) it was 0.989; with Afatinib (setting [2]), 0.974; with SNX-2112, 0.733; with XMD13-2 it was 0.968; with Vinblastine, 0.8. Also, the 50% inhibitory concentration (IC50) with PF-562271 is 1510 nM; with Afatinib (setting [1]), > 500 nM; with Afatinib (setting [2]) it was > 10000 nM; in the test with SNX-2112 it was 715 nM; in the test with XMD13-2, > 10200 nM; with Vinblastine, 46.2 nM.

As usually defined, the IC50 is the concentration that gives 50% inhibition.
